# The whole screen tested about 310,000 compounds, of which about 2,200 (0.71%) showed an effect of 50% or more. Effects have a minus sign here. The list shows a part of the results.
# Molecular target: human ether-à-go-go-related gene (hERG) potassium channel (human, UniProt Q12809)
# Assay: primary screen, population patch clamp on CHO cells stably expressing hERG
# human ether-à-go-go-related gene (hERG) potassium channel, sequence (Q12809 whole entry, looked up): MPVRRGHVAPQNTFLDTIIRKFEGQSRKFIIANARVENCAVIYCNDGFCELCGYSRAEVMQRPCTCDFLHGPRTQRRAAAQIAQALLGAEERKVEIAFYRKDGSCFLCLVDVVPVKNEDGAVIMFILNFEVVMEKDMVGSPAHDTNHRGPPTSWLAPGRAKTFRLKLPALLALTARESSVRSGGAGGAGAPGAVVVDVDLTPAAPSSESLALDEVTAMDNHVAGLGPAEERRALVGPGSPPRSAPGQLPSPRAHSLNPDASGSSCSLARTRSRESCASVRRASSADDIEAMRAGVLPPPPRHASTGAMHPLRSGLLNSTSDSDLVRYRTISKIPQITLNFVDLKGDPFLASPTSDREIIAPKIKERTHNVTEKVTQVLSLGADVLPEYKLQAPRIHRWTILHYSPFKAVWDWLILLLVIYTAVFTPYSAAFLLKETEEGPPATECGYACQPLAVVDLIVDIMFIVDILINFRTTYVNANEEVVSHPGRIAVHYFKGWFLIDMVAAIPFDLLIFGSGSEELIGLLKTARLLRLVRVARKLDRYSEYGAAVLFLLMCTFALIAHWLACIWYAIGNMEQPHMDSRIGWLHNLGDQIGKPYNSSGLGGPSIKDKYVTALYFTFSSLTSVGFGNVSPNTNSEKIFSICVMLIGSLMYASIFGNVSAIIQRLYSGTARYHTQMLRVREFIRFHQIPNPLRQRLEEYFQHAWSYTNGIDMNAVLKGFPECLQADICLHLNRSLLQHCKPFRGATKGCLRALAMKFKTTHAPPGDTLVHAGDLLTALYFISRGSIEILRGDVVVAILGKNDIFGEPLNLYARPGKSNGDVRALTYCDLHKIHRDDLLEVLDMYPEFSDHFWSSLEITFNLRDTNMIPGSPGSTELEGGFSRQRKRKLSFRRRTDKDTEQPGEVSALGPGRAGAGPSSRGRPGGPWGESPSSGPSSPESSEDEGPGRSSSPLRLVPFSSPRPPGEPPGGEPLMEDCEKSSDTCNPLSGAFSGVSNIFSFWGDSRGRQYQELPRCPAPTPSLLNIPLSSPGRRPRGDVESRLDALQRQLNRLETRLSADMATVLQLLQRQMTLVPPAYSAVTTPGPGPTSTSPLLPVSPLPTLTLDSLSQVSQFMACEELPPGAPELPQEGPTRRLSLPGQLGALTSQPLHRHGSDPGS
row,Compound,"hERG current change (%, negative = inhibition) at 1uM [%]"
1,CN(CCO)S(=O)(=O)c1ccc2c(c1)C(=NO)c1cc(S(=O)(=O)N(C)CCO)ccc1-2,6.54
2,O=c1c(F)cn(C2CCCO2)c(=O)n1Cc1c(F)cccc1Cl (stereo not shown),-1.74
3,CC(C)[C@H](NC(=O)c1ccco1)C(=O)N(C)Cc1c(F)cccc1Cl,8.51
4,CCN1C(=C2C(=O)c3ccccc3C2=O)C=Cc2ccccc21,2.71
5,Cn1c(=O)c2c(nc(SCC(=O)N3CCCCCC3)n2C)n(C)c1=O,1.5
6,O=C(NC(=S)Nc1ccc(N2CCOCC2)cc1)c1cncc(Br)c1,20.4
7,COc1ccc(OC)c(-c2cc(C3CCN(c4cc(Cl)nc(N)n4)CC3)[nH]n2)c1,1.07
8,C/C(Cc1ccccc1)=N\NC(=O)CNC(=O)c1cccc(Br)c1,-2.43
9,Cc1ccc(/C=C(\NC(=O)c2ccccc2)C(=O)NC(Cc2ccccc2)C(=O)O)cc1 (stereo not shown),14
10,O=C(Nc1ncccc1Cl)C(Sc1ccccc1)c1ccccc1 (stereo not shown),16.1
11,COc1cc(C(=O)Nc2ccc3c(c2)N(C(=O)CN2CCN(C)CC2)c2ccccc2CC3)cc(OC)c1OC.Cl,10.8
12,CCC(C)[C@H](NC(=O)N1CC(=O)Nc2ccccc21)C(=O)Nc1nccs1 (stereo partly shown),12.3
13,O=C(CCC(NC(=O)OCc1ccccc1)C(=O)O)OCc1ccccc1 (stereo not shown),15.5
14,C=CCOc1ccc(C(c2c(C(=O)O)[nH]c3ccccc23)c2c(C(=O)O)[nH]c3ccccc23)cc1,5.23
15,COc1ccc(OCC(=O)N2CC3(C)CC2CC(C)(C)C3)cc1 (stereo not shown),-7.34
16,O=S(=O)(NCc1ccccn1)C(F)(F)F,10.6
17,CCOC(=O)NC(NC(=S)Nc1ccc(OCC)cc1)C(Cl)(Cl)Cl (stereo not shown),17
18,O=C(Oc1ccc(Cl)c2cccnc12)c1cccnc1,13.2
19,O=c1cc(CO)oc(CN2CCC(Cc3ccccc3)CC2)c1O,16.8
20,N#CCCN(C(=O)COC(=O)C1=COCCO1)c1ccc(F)cc1,13.6
21,CC(=O)Nc1ccc(NC(=O)CCS(=O)(=O)c2ccc3c(c2)oc(=O)n3C)cc1,15.7
22,CC1CCN(S(=O)(=O)c2ccc3c(c2)c(=O)c(C(=O)N2CCOCC2)cn3C)CC1,18.7

row,Compound,"hERG current change (%, negative = inhibition) at 1uM [%]"
1,O=[N+]([O-])c1ccc(O)c(C=Nc2ccc3c(c2)OCO3)c1,5.28
2,CCOc1ncccc1C(=O)N=c1sccn1C,14.5
3,O=C(NC(=S)Nc1ccc2[nH]ncc2c1)c1ccccc1,13.3
4,COc1ccc2c(c1)C=Cc1ccccc1O2,4.18
5,Cc1ccccc1NC(=O)CSc1nc(=O)n(CCN2CCOCC2)c2c1CCCC2,0.443
6,CCOc1ccc(CNc2ccc(N3CCCC3)cc2)cc1,5.97
7,c1ccc(-c2cnc(-c3ccccn3)nn2)cc1,17.8
8,CC1CCN(C(=O)c2cc3ccccc3o2)CC1,0.771
9,Cc1ccccc1NC(=S)N1CCCC1,11.4
10,Cc1cc(OC(C)C(=O)Nc2ccncc2)ccc1Cl (stereo not shown),2.35
11,COC(=O)C/C(O)=C(/N=Nc1cccc(C(F)(F)F)c1)C(=O)OC,14.7
12,O=C(C1CCN(S(=O)(=O)c2ccccc2[N+](=O)[O-])CC1)N1CCOCC1,-1.29
13,CN(CC(O)CON=C1c2ccccc2-c2ccccc21)S(=O)(=O)c1ccc(Br)cc1 (stereo not shown),12.9
14,COC(=O)c1cc(OC)c(OC)cc1NC(=O)Nc1cccc(C(C)=O)c1,4.94
15,CCCS(=O)(=O)N1CCN(CCN2C(=O)c3cccc4cccc(c34)C2=O)CC1,15.7
16,CCCn1c2ccccc2c2cc(C(=O)O)ccc21,7.08
17,COC(=O)c1ccccc1NC(=O)c1cc2n(n1)C(C(F)F)CC(C(F)F)N2 (stereo not shown),12.2
18,CCn1ccc(-c2ccccc2)c(C#N)c1=O,-0.848
19,CCC(CC)NC(=O)Nc1ccccc1C,11.5
20,CC(=O)Oc1ccc(C(=O)Nc2cccc3c2CCCC3)cc1,17.7
21,Cc1nc2ccccc2c(=O)n1CCCN1CCOCC1,11.4
22,CCOC(=O)c1c(C(=O)OCC)c(C)n(N2C(=O)CSC2=S)c1C,19.4

row,Compound,"hERG current change (%, negative = inhibition) at 1uM [%]"
1,O=C(NCC1CCCO1)C(Cc1ccccc1)N1C(=O)C2C3C=CC(C4CC34)C2C1=O (stereo not shown),2.39
2,COc1cc(OC)c2ccc(=O)oc2c1C(CC(=O)N1CCCC(C)C1)c1ccc2c(c1)OCO2 (stereo not shown),7.87
3,COc1ccc(C(=O)/C=C/Nc2cc(C)on2)c(OC)c1,-2.29
4,Fc1ccc(-c2ccnc3nc(N4CCOCC4)nn23)cc1,-0.798
5,O=C1CC(SC(=NCc2ccc3c(c2)OCO3)Nc2ccccc2)C(=O)N1 (stereo not shown),16.2
6,N#CC[N+]1(CCCNP2(=O)C=C(c3ccccc3)OC(c3ccccc3)=C2)CCOCC1.[Cl-],-23.2
7,COC(=O)c1ccc(-n2c(C)nc3ccccc3c2=O)cc1,6.38
8,Cc1cc(N2CCCC2)ccc1/C=C1\NC(=S)N(C)C1=O,3.21
9,O=C(COC(=O)c1ccc2[nH]c3c(c2c1)CCCC3)NC1CCS(=O)(=O)C1 (stereo not shown),-0.612
10,CC(=O)Nc1ccc(S(=O)(=O)Oc2ccc(/C=N/NC(=O)c3ccc(Cl)cc3)cc2)cc1,15.7
11,Cn1nnc2cc(C(=O)N3CCSCC3)ccc21,15.2
12,CN(C)c1ccc(N=Cc2nc(-c3ccccc3)oc2OC(=O)c2cccc(Br)c2)cc1,6.69
13,O=C(NC(=S)Nc1cccc(-c2ccc(CO)o2)c1)c1cccs1,13.7
14,CCCn1cc(S(=O)(=O)CC(=O)Nc2ccc(OCC)cc2)c2ccccc21,-2.8
15,COc1ccc(C2C(C(=O)N3CCCC3)c3cc(OC)c(OC)cc3C(=O)N2C)cc1OC (stereo not shown),8.14
16,c1ccc(Cc2nnc3sc(-c4ccncc4)nn23)cc1,-3.84
17,COc1ccc(C2=NN(C(=O)c3cccc([N+](=O)[O-])c3)C(c3cccc([N+](=O)[O-])c3)C2)cc1 (stereo not shown),-10.1
18,Cc1cc(C(=O)O)c(CCCN)s1.Cl,15.6
19,Cc1cccc(Oc2sc(C(=O)c3ccccc3)c(N)c2C#N)c1,2.43
20,CCn1cc(Cl)c(C(=O)Nc2cccc(C(F)(F)F)c2)n1,8.06
21,O=C1CCN(S(=O)(=O)c2ccccc2)C2CCCCC12 (stereo not shown),-0.853
22,Cc1ccc(C)c(CSc2nnc(-c3cccs3)n2Cc2ccco2)c1,-5.9

row,Compound,"hERG current change (%, negative = inhibition) at 1uM [%]"
1,Cc1oc2cc(O)ccc2c(=O)c1Oc1ccc(F)cc1,15.4
2,Cn1c(=O)c2c(ncn2CC(=O)OCC(=O)Nc2ccccc2)n(C)c1=O,-5.19
3,CCOc1ccccc1NC(=O)C(Sc1nnc2ccccn12)c1ccccc1 (stereo not shown),9.73
4,O=C(Nc1cccnc1)c1cccc(-c2cc3ccccc3oc2=O)c1,13
5,Cc1ccc(NC(=O)c2cc(-c3ccc4c(c3)OCO4)on2)cc1C,15.4
6,COc1ccccc1NC(=O)N(C1CCCC1)C1CCN(C(C)=O)CC1,-0.739
7,COCc1c(C(=O)NCC2COc3ccccc3O2)oc2ccccc12 (stereo not shown),7.62
8,CCn1c2ccccc2c2nnc(SCC(=O)N(C)C3CCS(=O)(=O)C3)nc21 (stereo not shown),4.01
9,CCNC(=S)N/N=C/c1ccc(OCc2ccc(C(=O)OC)cc2)cc1,-4.16
10,O=C(CCCn1c(SCc2cccc(F)c2)nc2ccccc2c1=O)NCC1CCCO1 (stereo not shown),8.81
11,Cc1cc2cc(CNC(=O)c3cccc([N+](=O)[O-])c3)ccc2n1C,13.8
12,CCOc1ccc(S(=O)(=O)NCCC(=O)N(C)CC(=O)Nc2ccc(OC)cc2)cc1,8.06
13,COc1cc2c(cc1C1C(C#N)=C(N)OC3=C1C(=O)CC(C)(C)C3)OCO2 (stereo not shown),3.63
14,O=C(CSc1nc(C2CCCCC2)nc2ccccc12)NCc1ccco1,13.1
15,O=C(COc1ccc(Br)cc1CO)Nc1ccccc1F,10.6
16,Cc1cc(/C=C2/C(=O)NC(=O)N(Cc3ccco3)C2=O)c(C)n1-c1ccc(C(=O)O)cc1,13.7
17,CCn1cc(C(=O)O)c(=O)c2cc(F)c(N/N=C/c3ccccc3[N+](=O)[O-])cc21,3.61
18,O=C(O)CN=C1NC2(CCCCC2)Cc2ccccc21,5.63
19,COC(=O)Cc1ccc(OC(=O)CCS(=O)(=O)c2ccc(C)cc2)cc1,19
20,C[n+]1cccc(O)c1SCc1ccccc1.[Br-],11.4
21,CC1(C)c2[nH]c3ccccc3c2C[C@H]2C(=O)N(N)CC(=O)N21.Cl,9.35
22,O=C(c1ccc2c(c1)OCO2)C1CCCN(C(=O)Nc2ccc(F)cc2F)C1 (stereo not shown),-2.13

# — publication PMC4336329 (PLoS ONE, 2015)
